Measured values published in a collection of fitness landscapes (doi:10.1016/j.celrep.2020.107928).
Over roughly 81,000 sequences, “one-hybrid fitness for binding parS DNA” has its median near -0.17; the highest 2% begin near 0.51. Some of the results follow.

B1: Caulobacter ParB omega fusion; a variant is named by its letters at X, in order, B8GW30 (parent)
chain: MESVVVGEPGMSEGRRGLGRGLSALLGEVDAAPAQAPGEQLGGSREAPIEILQRNPDQPRRTFREEDLEDLSNSIREKGVLQPILVRPSPDTAGEYQIVAGERAWRAAQRAGLKTVPIMVRELDDLAVLEIGIIENVQRADLNVLEEALSYKVLMEKFERTQENIAQTIGKSXSHVANXMRLLXLPDEVQSYLVSGELTAXHARAIAAAADPVALAKQIIEGGLSVRETEALARKAPNLSAGKSKGGRPPRVKDTDTQALESDLSSVLGLDVSIDHRGSTGTLTITYATLEQLDDLCNRLTRGI

Variants of: B1
Test: one-hybrid fitness for binding parS DNA (scaled: cognate 1, non-cognate 0); higher = stronger binding
Conditions: with parS DNA site
Procedure, shortened: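 Selection: bacterial one-hybrid in E. coli USO, HIS3 reporter with the site 19 bp from the promoter, 48 hours at 37°C on M9-minus-histidine plus 0.1 mM IPTG and 5 mM 3-AT. Libraries were Caulobacter ParB with four randomised specificity codons, sequenced on Illumina before and after selection. Fitness is the rescaled log change in variant-to-wild-type read ratio, anchored to the cognate and non-cognate sites.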

Variant | one-hybrid fitness for binding parS DNA
RQKQ | ≤ 0.2
IYPR | ≤ 0.2
HMEF | ≤ 0.2
AYRR | ≤ 0.2
KRQW | ≤ 0.2
IDMG | ≤ 0.2
WPDG | ≤ 0.2
SFYL | ≤ 0.2
MPCS | ≤ 0.2
HSAI | ≤ 0.2
MTAC | ≤ 0.2
WMAV | ≤ 0.2
FDGR | ≤ 0.2
SRDG | ≤ 0.2
GTPC | ≤ 0.2
HIWG | ≤ 0.2
CKYC | ≤ 0.2
GTTY | ≤ 0.2
LYSR | ≤ 0.2
TEWS | ≤ 0.2
PMGY | ≤ 0.2
SPCF | ≤ 0.2
KVQG | ≤ 0.2
NCSE | ≤ 0.2

Variant | one-hybrid fitness for binding parS DNA
YTAY | ≤ 0.2
QQDC | ≤ 0.2
RKSC | 0.812
KCRD | ≤ 0.2
LMAI | ≤ 0.2
PQRN | ≤ 0.2
QRRQ | ≤ 0.2
ELAF | ≤ 0.2
HINN | ≤ 0.2
ITDY | ≤ 0.2
CSPK | ≤ 0.2
QWYY | ≤ 0.2
SLPG | ≤ 0.2
SFET | ≤ 0.2
TNSS | ≤ 0.2
GMTR | ≤ 0.2
WFQF | ≤ 0.2
QKDC | ≤ 0.2
SANY | ≤ 0.2
KTDV | ≤ 0.2
DLLD | ≤ 0.2
IVTT | ≤ 0.2
GMPG | ≤ 0.2
RMEN | 0.369

Variant | one-hybrid fitness for binding parS DNA
QSVG | ≤ 0.2
SPSK | ≤ 0.2
DRDC | ≤ 0.2
RTFE | ≤ 0.2
YNIY | ≤ 0.2
ALTM | ≤ 0.2
GHHS | ≤ 0.2
FKPR | ≤ 0.2
YGDI | ≤ 0.2
MRDV | ≤ 0.2
WLLG | ≤ 0.2
AGMS | ≤ 0.2
KTRV | ≤ 0.2
HAYF | ≤ 0.2
FSEM | 0.417
SRPM | ≤ 0.2
MGPT | ≤ 0.2
WTVR | ≤ 0.2
HYAS | ≤ 0.2
KRVG | ≤ 0.2
SYQC | ≤ 0.2
VTMQ | ≤ 0.2
YWLS | ≤ 0.2
QQMS | ≤ 0.2

Variant | one-hybrid fitness for binding parS DNA
PHFG | ≤ 0.2
HLHN | ≤ 0.2
YKSD | ≤ 0.2
YRAI | ≤ 0.2
ISSL | ≤ 0.2
HIYC | ≤ 0.2
ASME | ≤ 0.2
MWTV | ≤ 0.2
TTAN | ≤ 0.2
EIGN | ≤ 0.2
ETLW | ≤ 0.2
PDYE | ≤ 0.2
ERIT | ≤ 0.2
QSHM | ≤ 0.2
VTSP | ≤ 0.2
WDKC | ≤ 0.2
QRVD | ≤ 0.2
HDTA | ≤ 0.2
GYER | ≤ 0.2
EAIP | ≤ 0.2
HAVF | ≤ 0.2
TCKI | ≤ 0.2
CVHT | ≤ 0.2
VEKL | ≤ 0.2

Variant | one-hybrid fitness for binding parS DNA
PQTN | ≤ 0.2
SNLD | ≤ 0.2
VNRR | ≤ 0.2
HPVF | ≤ 0.2
TRWA | ≤ 0.2
GRSL | ≤ 0.2
KHLG | ≤ 0.2
CPIR | ≤ 0.2
PATS | ≤ 0.2
WGTS | ≤ 0.2
LMYR | ≤ 0.2
IGKT | ≤ 0.2
WIPV | ≤ 0.2
SHAL | ≤ 0.2
YSVG | ≤ 0.2
PWGR | ≤ 0.2
NDCR | ≤ 0.2
EFPA | ≤ 0.2
RYIS | 0.939
ETLT | ≤ 0.2
HLCF | ≤ 0.2
CSKV | ≤ 0.2
RGVC | 0.445
HPHR | ≤ 0.2

Variant | one-hybrid fitness for binding parS DNA
WIGV | ≤ 0.2
MQNF | ≤ 0.2
KYKC | ≤ 0.2
YVSC | ≤ 0.2
TWNG | ≤ 0.2
MPYR | ≤ 0.2
EHLR | ≤ 0.2
RSSM | 0.327
LWNS | ≤ 0.2
ITWG | ≤ 0.2
QFPA | ≤ 0.2
INLF | 0.225
HQLC | ≤ 0.2
KFTT | ≤ 0.2
LHGL | ≤ 0.2
QIKA | ≤ 0.2
ARTG | ≤ 0.2
CTHG | ≤ 0.2
KPET | ≤ 0.2
GESD | ≤ 0.2
AKLN | ≤ 0.2
MAKD | ≤ 0.2
AINP | ≤ 0.2
MYHL | ≤ 0.2

Variant | one-hybrid fitness for binding parS DNA
CGNA | ≤ 0.2
MSWS | ≤ 0.2
RWYM | ≤ 0.2
ISGL | ≤ 0.2
QMQQ | ≤ 0.2
TDDM | ≤ 0.2
VRVG | ≤ 0.2
CPPK | ≤ 0.2
QVDF | ≤ 0.2
PPIT | ≤ 0.2
VKAP | ≤ 0.2
TERW | ≤ 0.2
AECS | ≤ 0.2
PVTD | ≤ 0.2
KFPR | ≤ 0.2
TRCN | ≤ 0.2
RWIR | ≤ 0.2
AMSA | ≤ 0.2
QGCG | ≤ 0.2
RDFS | ≤ 0.2
RAHN | 0.481
GVHL | ≤ 0.2
MNLG | ≤ 0.2
APLY | ≤ 0.2

Variant | one-hybrid fitness for binding parS DNA
YRST | ≤ 0.2
IMQT | ≤ 0.2
EDNK | ≤ 0.2
ARTT | ≤ 0.2
GTFA | ≤ 0.2
KQLI | ≤ 0.2
ETPR | ≤ 0.2
QMKM | ≤ 0.2
DPVD | ≤ 0.2
LSEF | ≤ 0.2
HSPP | ≤ 0.2
HQMF | ≤ 0.2
LLNM | ≤ 0.2
NTPI | ≤ 0.2
KEGT | ≤ 0.2
KRMK | ≤ 0.2
DQDS | ≤ 0.2
STRY | ≤ 0.2
SNTS | ≤ 0.2
NSDV | ≤ 0.2
PQLE | ≤ 0.2
TCIG | ≤ 0.2
SYRY | ≤ 0.2
SRGP | ≤ 0.2

Variant | one-hybrid fitness for binding parS DNA
RMCR | ≤ 0.2
GQGR | ≤ 0.2
SEKS | ≤ 0.2
INTS | ≤ 0.2
GPIQ | ≤ 0.2
TCPL | ≤ 0.2
PRKV | ≤ 0.2
SKAD | ≤ 0.2
NLLD | ≤ 0.2
PCNY | ≤ 0.2
TRPR | ≤ 0.2
NGWG | ≤ 0.2
LHNF | ≤ 0.2
RQSA | 0.575
QQCM | ≤ 0.2
SSGN | ≤ 0.2
AIRI | ≤ 0.2
VISS | ≤ 0.2
LHTV | ≤ 0.2
EALQ | ≤ 0.2
LFNT | ≤ 0.2
KMDY | ≤ 0.2
ALTG | ≤ 0.2
KLRW | ≤ 0.2

Variant | one-hybrid fitness for binding parS DNA
LPVL | ≤ 0.2
AGKK | ≤ 0.2
PRTF | ≤ 0.2
QCTA | ≤ 0.2
RKRR | ≤ 0.2
HNQG | ≤ 0.2
DLES | ≤ 0.2
MNER | ≤ 0.2
HTCW | ≤ 0.2
LHTN | ≤ 0.2
KPTL | ≤ 0.2
HAVL | ≤ 0.2
TWMI | ≤ 0.2
ADRR | ≤ 0.2
RSTM | 0.318
TLIC | ≤ 0.2
RTCS | 0.99
INTT | ≤ 0.2
MNTF | ≤ 0.2
ARGS | ≤ 0.2
RVFV | ≤ 0.2
TTEL | ≤ 0.2
VDSD | ≤ 0.2
RNNP | ≤ 0.2

Variant | one-hybrid fitness for binding parS DNA
TLVE | ≤ 0.2
RYID | ≤ 0.2
HYYC | ≤ 0.2
VWLN | ≤ 0.2
CEHV | ≤ 0.2
QVGK | ≤ 0.2
YIYT | ≤ 0.2
IQMS | ≤ 0.2
PIHE | ≤ 0.2
HTLV | ≤ 0.2
QKST | ≤ 0.2
THNT | ≤ 0.2
LQNP | ≤ 0.2
PDLI | ≤ 0.2
GSPG | ≤ 0.2
TRYN | ≤ 0.2
SSND | ≤ 0.2
GHYV | ≤ 0.2
ASAI | ≤ 0.2
TGDC | ≤ 0.2
WAMA | ≤ 0.2
HDSS | ≤ 0.2
RTHV | ≤ 0.2
TYQF | ≤ 0.2

Variant | one-hybrid fitness for binding parS DNA
GAMR | ≤ 0.2
RKNS | 0.766
QMKP | ≤ 0.2
PGYV | ≤ 0.2
QVPQ | ≤ 0.2
MQKA | ≤ 0.2
WLKA | ≤ 0.2
RMMT | 0.874
PTCL | ≤ 0.2
FRAL | ≤ 0.2
LWLR | ≤ 0.2
KDKR | ≤ 0.2
QMFL | ≤ 0.2
PAHC | ≤ 0.2
VYSF | ≤ 0.2
SMIY | ≤ 0.2
DQLH | ≤ 0.2
SCSL | ≤ 0.2
WRWC | ≤ 0.2
WWLP | ≤ 0.2
SDPT | ≤ 0.2
AQYC | ≤ 0.2
LETC | ≤ 0.2
NSPM | ≤ 0.2

Variant | one-hybrid fitness for binding parS DNA
HVKH | ≤ 0.2
QADN | ≤ 0.2
TFIT | ≤ 0.2
YGYS | ≤ 0.2
RYVD | ≤ 0.2
GPAN | ≤ 0.2
TCFS | ≤ 0.2
HTGI | ≤ 0.2
FYQC | ≤ 0.2
ENMG | ≤ 0.2
TSRD | ≤ 0.2
QFMY | ≤ 0.2
LMSE | ≤ 0.2
SHPV | ≤ 0.2
ATAY | ≤ 0.2
GASM | ≤ 0.2
PKYL | ≤ 0.2
AWYR | ≤ 0.2
